The values that follow come from article PMC3632089.

Chains of the proteins cited; added tags and fusions are not shown.
UniProt O95747: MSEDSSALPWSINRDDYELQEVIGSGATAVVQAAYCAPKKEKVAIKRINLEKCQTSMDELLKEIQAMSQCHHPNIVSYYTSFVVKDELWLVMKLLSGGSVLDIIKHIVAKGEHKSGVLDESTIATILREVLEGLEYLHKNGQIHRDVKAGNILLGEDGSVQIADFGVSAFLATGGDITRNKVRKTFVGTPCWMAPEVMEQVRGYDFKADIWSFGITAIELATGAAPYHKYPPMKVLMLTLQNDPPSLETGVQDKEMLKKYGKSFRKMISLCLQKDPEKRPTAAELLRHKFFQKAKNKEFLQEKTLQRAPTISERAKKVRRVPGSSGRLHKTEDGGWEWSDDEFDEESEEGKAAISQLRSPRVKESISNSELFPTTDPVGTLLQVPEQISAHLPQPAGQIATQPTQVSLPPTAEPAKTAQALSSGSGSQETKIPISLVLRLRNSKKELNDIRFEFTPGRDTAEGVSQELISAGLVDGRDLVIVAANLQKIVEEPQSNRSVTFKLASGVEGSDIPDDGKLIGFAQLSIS
UniProt Q9H4A3: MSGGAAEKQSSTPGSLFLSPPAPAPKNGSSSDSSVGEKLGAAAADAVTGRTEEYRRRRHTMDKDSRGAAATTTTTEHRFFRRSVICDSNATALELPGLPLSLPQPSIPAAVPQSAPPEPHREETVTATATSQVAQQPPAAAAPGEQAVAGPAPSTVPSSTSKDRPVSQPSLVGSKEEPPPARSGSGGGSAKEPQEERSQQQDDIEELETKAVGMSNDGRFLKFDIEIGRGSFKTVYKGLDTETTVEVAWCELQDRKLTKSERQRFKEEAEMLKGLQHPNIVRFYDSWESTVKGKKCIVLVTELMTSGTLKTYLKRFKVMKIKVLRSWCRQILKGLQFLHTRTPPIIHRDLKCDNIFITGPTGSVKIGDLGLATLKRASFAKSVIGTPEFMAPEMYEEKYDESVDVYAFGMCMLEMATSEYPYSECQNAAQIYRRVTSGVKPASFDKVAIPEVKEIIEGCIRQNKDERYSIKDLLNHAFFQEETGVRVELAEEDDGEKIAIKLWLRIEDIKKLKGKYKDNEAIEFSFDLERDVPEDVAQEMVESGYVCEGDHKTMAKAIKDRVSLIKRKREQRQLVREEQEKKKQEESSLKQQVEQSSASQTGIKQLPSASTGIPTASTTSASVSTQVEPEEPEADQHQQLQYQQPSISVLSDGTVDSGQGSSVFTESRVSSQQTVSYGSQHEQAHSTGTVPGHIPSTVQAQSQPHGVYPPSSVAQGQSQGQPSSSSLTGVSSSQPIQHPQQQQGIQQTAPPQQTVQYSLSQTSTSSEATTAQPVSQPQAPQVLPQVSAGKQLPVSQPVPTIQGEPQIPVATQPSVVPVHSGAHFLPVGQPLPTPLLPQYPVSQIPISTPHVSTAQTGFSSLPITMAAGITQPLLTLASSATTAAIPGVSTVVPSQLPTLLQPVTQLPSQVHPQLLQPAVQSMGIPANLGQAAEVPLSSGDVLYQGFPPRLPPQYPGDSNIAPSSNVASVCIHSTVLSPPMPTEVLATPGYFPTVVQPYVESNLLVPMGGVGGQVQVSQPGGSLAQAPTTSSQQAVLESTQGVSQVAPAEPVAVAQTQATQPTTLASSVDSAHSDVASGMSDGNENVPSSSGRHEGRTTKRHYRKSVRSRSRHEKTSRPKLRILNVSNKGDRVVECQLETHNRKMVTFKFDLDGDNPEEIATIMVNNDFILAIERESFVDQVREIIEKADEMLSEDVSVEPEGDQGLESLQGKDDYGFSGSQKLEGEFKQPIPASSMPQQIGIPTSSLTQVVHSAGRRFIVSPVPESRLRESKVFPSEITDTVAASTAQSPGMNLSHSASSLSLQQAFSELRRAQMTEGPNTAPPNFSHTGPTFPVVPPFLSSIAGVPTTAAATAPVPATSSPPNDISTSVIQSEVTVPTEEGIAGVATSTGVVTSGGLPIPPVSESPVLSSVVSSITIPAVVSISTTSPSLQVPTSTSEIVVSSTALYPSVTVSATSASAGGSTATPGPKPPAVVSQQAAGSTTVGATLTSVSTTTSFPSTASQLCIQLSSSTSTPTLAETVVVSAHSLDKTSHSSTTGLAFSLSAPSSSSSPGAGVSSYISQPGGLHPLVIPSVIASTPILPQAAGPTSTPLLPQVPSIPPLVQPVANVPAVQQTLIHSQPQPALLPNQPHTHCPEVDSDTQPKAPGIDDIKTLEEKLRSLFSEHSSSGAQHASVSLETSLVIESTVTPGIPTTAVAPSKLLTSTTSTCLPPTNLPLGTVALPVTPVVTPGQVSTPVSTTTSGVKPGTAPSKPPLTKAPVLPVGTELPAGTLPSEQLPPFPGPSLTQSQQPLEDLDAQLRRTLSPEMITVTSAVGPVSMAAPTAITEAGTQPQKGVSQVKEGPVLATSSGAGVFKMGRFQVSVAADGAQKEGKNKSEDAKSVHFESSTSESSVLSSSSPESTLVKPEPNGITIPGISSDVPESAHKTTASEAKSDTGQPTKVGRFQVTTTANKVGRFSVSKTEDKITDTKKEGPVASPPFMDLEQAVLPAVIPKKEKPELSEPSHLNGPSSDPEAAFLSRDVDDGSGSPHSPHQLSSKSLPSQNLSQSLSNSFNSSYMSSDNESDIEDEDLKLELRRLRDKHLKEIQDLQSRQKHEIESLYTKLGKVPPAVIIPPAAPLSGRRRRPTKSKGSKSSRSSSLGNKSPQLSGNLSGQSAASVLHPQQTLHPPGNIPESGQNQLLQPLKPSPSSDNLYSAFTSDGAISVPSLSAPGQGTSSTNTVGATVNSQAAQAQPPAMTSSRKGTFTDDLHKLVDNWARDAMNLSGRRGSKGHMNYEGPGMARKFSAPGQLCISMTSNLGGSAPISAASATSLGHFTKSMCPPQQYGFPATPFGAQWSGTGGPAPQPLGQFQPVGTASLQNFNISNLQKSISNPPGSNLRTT

These are yes or no findings as the source states them, for the method shown. In cells and extracts the contact can be indirect. Some binding calls cover weakened binding; strength is not graded here. Sequences can lack the tags named with a protein.

Common to all, as to experiment: co-IP; endogenous WNK1, SPAK/OSR1 or NKCC1 immunoprecipitated from 0.2 mg HEK-293 extract with antibodies coupled to Protein G-Sepharose; immunoblot for FLAG-KLHL3
For orientation: Immunoblotting shows a protein as a band on a membrane.

Assay [1] concerns the target T1, NKCC1 (Na+/K+/2Cl- co-transporter 1), endogenous (human (endogenous in HEK-293)) (UniProt P55011).
T1 sequence: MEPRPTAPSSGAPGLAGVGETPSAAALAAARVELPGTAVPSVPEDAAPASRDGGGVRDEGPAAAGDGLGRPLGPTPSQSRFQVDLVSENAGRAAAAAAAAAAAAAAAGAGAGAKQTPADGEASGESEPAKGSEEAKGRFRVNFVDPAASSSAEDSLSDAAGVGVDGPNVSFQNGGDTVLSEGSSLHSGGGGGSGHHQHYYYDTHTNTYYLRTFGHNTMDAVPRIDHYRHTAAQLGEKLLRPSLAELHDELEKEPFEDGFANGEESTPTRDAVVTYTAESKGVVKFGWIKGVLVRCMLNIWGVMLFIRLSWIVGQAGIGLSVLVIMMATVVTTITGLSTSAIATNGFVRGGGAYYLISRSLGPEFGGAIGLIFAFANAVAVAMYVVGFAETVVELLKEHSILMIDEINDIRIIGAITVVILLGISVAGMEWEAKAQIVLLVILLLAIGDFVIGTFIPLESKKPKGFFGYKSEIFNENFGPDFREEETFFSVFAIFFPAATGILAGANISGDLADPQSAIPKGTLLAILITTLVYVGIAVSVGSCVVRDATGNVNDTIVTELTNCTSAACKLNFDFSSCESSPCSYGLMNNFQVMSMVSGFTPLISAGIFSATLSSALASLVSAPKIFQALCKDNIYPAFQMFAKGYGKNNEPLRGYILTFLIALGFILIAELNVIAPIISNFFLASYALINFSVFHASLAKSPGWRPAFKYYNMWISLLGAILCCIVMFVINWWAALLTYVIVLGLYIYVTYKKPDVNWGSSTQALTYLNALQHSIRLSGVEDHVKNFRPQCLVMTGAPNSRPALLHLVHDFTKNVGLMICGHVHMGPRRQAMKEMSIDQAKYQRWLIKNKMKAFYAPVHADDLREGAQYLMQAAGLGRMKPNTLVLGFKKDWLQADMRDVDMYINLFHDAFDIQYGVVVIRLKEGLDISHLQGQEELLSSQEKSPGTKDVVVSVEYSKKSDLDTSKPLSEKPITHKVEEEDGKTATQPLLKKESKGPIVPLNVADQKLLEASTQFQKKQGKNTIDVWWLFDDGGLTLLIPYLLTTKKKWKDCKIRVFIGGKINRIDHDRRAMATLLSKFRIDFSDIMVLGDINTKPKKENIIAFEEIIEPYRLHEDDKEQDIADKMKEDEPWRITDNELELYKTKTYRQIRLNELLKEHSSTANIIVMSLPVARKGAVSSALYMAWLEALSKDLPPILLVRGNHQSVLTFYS

Assay [2] deals with OSR1 (oxidative stress-responsive kinase 1), endogenous (human (endogenous in HEK-293)) (UniProt O95747).
Assay [3] has as its target WNK1 (with no lysine kinase 1), endogenous (human (endogenous in HEK-293)) (UniProt Q9H4A3).

B1: FLAG-tagged wild-type KLHL3 (Kelch-like 3) (protein, UniProt Q9UH77-1 1-587)
chain: MEGESVKLSSQTLIQAGDDEKNQRTITVNPAHMGKAFKVMNELRSKQLLCDVMIVAEDVEIEAHRVVLAACSPYFCAMFTGDMSESKAKKIEIKDVDGQTLSKLIDYIYTAEIEVTEENVQVLLPAASLLQLMDVRQNCCDFLQSQLHPTNCLGIRAFADVHTCTDLLQQANAYAEQHFPEVMLGEEFLSLSLDQVCSLISSDKLTVSSEEKVFEAVISWINYEKETRLEHMAKLMEHVRLPLLPRDYLVQTVEEEALIKNNNTCKDFLIEAMKYHLLPLDQRLLIKNPRTKPRTPVSLPKVMIVVGGQAPKAIRSVECYDFEEDRWDQIAELPSRRCRAGVVFMAGHVYAVGGFNGSLRVRTVDVYDGVKDQWTSIASMQERRSTLGAAVLNDLLYAVGGFDGSTGLASVEAYSYKTNEWFFVAPMNTRRSSVGVGVVEGKLYAVGGYDGASRQCLSTVEQYNPATNEWIYVADMSTRRSGAGVGVLSGQLYATGGHDGPLVRKSVEVYDPGTNTWKQVADMNMCRRNAGVCAVNGLLYVVGGDDGSCNLASVEYYNPVTDKWTLLPTNMSTGRSYAGVAVIHKSL
On to B1, for which the binding result is “no binding” in assay [1], “no binding” in assay [2] and “binds” in assay [3].
